Where two headings read alike, the source gives them in different places. These are yes or no findings as the source states them, for the method shown. For part of these data: In cells and extracts the contact can be indirect. Some results given as binding are weak or reduced against the parent protein; the word gives no strength. For part of these data: Tags and fused reporters may be left off the sequences shown.

The chains behind the UniProt entries cited, without tags or fusion partners. Where a name states a change or a piece, a line headed by the entry shows the natural chain unless it says otherwise.
UniProt P19484: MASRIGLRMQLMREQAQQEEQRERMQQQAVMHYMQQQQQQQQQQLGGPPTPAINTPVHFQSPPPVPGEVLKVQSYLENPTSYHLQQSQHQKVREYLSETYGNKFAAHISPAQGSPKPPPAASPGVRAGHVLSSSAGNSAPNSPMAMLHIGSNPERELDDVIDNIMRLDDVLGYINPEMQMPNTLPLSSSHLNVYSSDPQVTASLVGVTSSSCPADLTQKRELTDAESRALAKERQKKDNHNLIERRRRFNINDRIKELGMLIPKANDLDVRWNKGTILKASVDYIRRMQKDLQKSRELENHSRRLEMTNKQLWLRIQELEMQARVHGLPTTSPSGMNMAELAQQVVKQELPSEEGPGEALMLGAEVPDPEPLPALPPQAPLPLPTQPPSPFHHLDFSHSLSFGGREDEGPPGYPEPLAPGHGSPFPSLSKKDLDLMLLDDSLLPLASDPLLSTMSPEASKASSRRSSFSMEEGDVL
UniProt Q15388: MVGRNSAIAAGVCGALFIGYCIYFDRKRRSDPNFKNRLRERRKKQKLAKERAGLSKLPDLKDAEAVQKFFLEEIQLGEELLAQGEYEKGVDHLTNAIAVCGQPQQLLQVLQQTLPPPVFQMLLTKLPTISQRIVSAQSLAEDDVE

The target of assay [1] is endogenous TFEB (transcription factor EB) (human (endogenous in HeLa)) (UniProt P19484). Put plainly: co-IP; endogenous TFEB immunoprecipitated from 1 mg HeLa whole cell lysate (untreated or torin-1-treated) with 2 ug antibody overnight at 4 C, protein A sepharose beads; isotype rabbit IgG as negative control; immunoblot.
For assay [2], the target named is MLS-TFEB FLAG (TFEB mutated in the mitochondrial localization sequence, V30K) (UniProt P19484). Put plainly: co-IP; co-immunoprecipitation of ectopically expressed WT-TFEB or MLS-TFEB with TOMM20; told only in the discussion, no conditions given.
In assay [3] the target is WT-TFEB FLAG (ectopically expressed transcription factor EB) (UniProt P19484). Described as above.
Assay [4] addresses endogenous TFEB (transcription factor EB) (human (endogenous in HeLa)) (UniProt P19484). Put plainly: co-IP; endogenous TFEB immunoprecipitated from 1 mg HeLa whole cell lysate (untreated or torin-1-treated) with 2 ug antibody overnight at 4 C, protein A sepharose beads; isotype rabbit IgG as negative control; immunoblot. The source holds these as a separate data set.
For assay [5], the target named is TFEB-FLAG (overexpressed in HEK293T) (UniProt P19484). Put plainly: pull-down; LONP1-HA purified from HEK293T (anti-HA, eluted with HA peptide in Buffer A) incubated with TFEB-FLAG held on M2 anti-FLAG agarose beads or control beads; immunoblot; both purified.
The target is the same in assay [6]. Put plainly: co-IP; HEK293T cells overexpressing TFEB-FLAG and LONP1-HA; 1 mg lysate with M2 anti-FLAG and Protein G magnetic beads; empty vector as negative control; immunoblot.

“TOMM20 (endogenous, HeLa) (from UniProt Q15388 1-145)”: in assay [1], the binding result is given as “binds”. As for “TOMM20 (in cells expressing ectopic TFEB) (from UniProt Q15388 1-145)”, the binding entry in assay [2] is listed as “no binding”; in assay [3], “binds”.

B1: LONP1 (endogenous, HeLa) (enzyme, UniProt P36776 68-959)
chain: FWEASSRGGGAFSGGEDASEGGAEEGAGGAGGSAGAGEGPVITALTPMTIPDVFPHLPLIAITRNPVFPRFIKIIEVKNKKLVELLRRKVRLAQPYVGVFLKRDDSNESDVVESLDEIYHTGTFAQIHEMQDLGDKLRMIVMGHRRVHISRQLEVEPEEPEAENKHKPRRKSKRGKKEAEDELSARHPAELAMEPTPELPAEVLMVEVENVVHEDFQVTEEVKALTAEIVKTIRDIIALNPLYRESVLQMMQAGQRVVDNPIYLSDMGAALTGAESHELQDVLEETNIPKRLYKALSLLKKEFELSKLQQRLGREVEEKIKQTHRKYLLQEQLKIIKKELGLEKDDKDAIEEKFRERLKELVVPKHVMDVVDEELSKLGLLDNHSSEFNVTRNYLDWLTSIPWGKYSNENLDLARAQAVLEEDHYGMEDVKKRILEFIAVSQLRGSTQGKILCFYGPPGVGKTSIARSIARALNREYFRFSVGGMTDVAEIKGHRRTYVGAMPGKIIQCLKKTKTENPLILIDEVDKIGRGYQGDPSSALLELLDPEQNANFLDHYLDVPVDLSKVLFICTANVTDTIPEPLRDRMEMINVSGYVAQEKLAIAERYLVPQARALCGLDESKAKLSSDVLTLLIKQYCRESGVRNLQKQVEKVLRKSAYKIVSGEAESVEVTPENLQDFVGKPVFTVERMYDVTPPGVVMGLAWTAMGGSTLFVETSLRRPQDKDAKGDKDGSLEVTGQLGEVMKESARIAYTFARAFLMQHAPANDYLVTSHIHLHVPEGATPKDGPSAGCTIVTALLSLAMGRPVRQNLAMTGEVSLTGKILPVGGIKEKTIAAKRAGVTCIVLPAENKKDFYDLAAFITEGLEVHFVEHYREIFDIAFPDEQAEALAVER
Consider B1, for which the binding entry in assay [4] is “binds”.

B2: LONP1-HA (enzyme, UniProt P36776 68-959)
chain: B1 chain
As for B2, the binding entry in assay [5] and in assay [6] was “binds” throughout.

These data come from PMC10897448.
